{
  "source": "paper PMC8021565",
  "about": "“Structure of the mannose phosphotransferase system (man-PTS) complexed with microcin E492, a pore-forming bacteriocin” (Cell Discovery, 2021)",
  "target": "T1, MccE492–ManYZ (MceA–ManYZ) complex; man-PTS (Escherichia coli, UniProt P69801+P69805)",
  "T1 construct": "gene manY; ManY and ManZ co-expressed in E. coli with GST-MceA (Klebsiella pneumoniae RYC492, without siderophore); GST removed; MccE492:ManYZ 3:3 trimer; MccE492 S78-S84 not modelled; with Microcin E492",
  "assay": "cryo-EM structure, […] Å",
  "format": "binding",
  "details": "bound in occluded conformation in the middle of the membrane, clamped by CoreY and CoreZ; complex with MccE492 (MceA)",
  "data": [
    {"smiles": "OC[C@H]1OC(O)[C@@H](O)[C@@H](O)[C@@H]1O", "note": "(stereo partly shown) [mannose]", "values": [
      {"measurement": "cryo-EM structure, 2.28 Å", "value": "In the MccE492–ManYZ structure, the mannose substrate is localized in the middle of the membrane"}
    ]}
  ]
}
